# Test results: the supplement of paper PMC7826260
# This is one part of the list. Each Rep nickase domain was tested in vitro on the same pool of single strands at 3 µM enzyme and 37 °C for 1 h; the strands have 90 letters, of which the middle is given. Values are log2 of uncut reads against the no-enzyme pool; strong cutting gives strongly negative numbers. There is no active / inactive call. Because reads are shares of a total, they shift together, so uncut sequences can rise above 0 when many others are cut.
# Experiments:
# Assay in all cases: uncleaved DNA left, log2 of reads against the no-enzyme library (log2 ratio); higher = less cleavage (more negative = more Rep cleavage of the k-mer); sequences stand for … in CTCGTCCG…ACCGGAGA
# [1] = system: T1, Rep nickase domain of Muscovy duck circovirus
# T1 sequence (Rep 1-111, printed without the tag): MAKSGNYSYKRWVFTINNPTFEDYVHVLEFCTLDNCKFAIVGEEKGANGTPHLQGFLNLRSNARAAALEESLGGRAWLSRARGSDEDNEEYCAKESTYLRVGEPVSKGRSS
# Procedure: (§1)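 A pool of 90-nt single-stranded DNAs with seven random bases just before the constant AC of the nick site (name = the seven bases) was cut by 3 µM recombinant His6-SUMO-tagged Rep nickase domain (300 nM DNA, 50 mM HEPES pH 8.0, 50 mM NaCl, 1 mM MnCl2, 1 h, 37 °C, three replicates). Uncut DNA was amplified and sequenced.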
# [2] = system: T2, Rep nickase domain of banana bunchy top virus
# T2 sequence (Rep 1-94, printed without the tag): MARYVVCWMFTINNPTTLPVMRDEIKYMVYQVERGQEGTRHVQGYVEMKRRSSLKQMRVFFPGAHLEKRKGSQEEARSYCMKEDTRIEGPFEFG
# Procedure: as §1
# [3] = system: T3, Rep nickase domain of cabbage leaf curl virus
# T3 sequence (Rep 1-116, printed without the tag): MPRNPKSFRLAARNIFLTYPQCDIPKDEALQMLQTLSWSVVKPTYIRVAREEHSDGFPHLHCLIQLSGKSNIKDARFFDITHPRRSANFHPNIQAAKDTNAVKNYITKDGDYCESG
# Procedure: as §1
# [4] = system: T4, Rep nickase domain of chickpea chlorotic dwarf virus
# T4 sequence (Rep 1-124, printed without the tag): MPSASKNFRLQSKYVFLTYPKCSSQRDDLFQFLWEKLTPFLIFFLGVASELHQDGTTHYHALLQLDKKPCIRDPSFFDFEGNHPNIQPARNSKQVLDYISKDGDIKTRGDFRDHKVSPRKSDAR
# Procedure: as §1
# [5] = system: T5, Rep nickase domain of faba bean necrotic yellows virus
# T5 sequence (Rep 1-98, printed without the tag): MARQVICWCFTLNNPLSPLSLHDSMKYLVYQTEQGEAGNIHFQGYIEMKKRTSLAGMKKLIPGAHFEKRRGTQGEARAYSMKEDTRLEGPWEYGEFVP
# Procedure: as §1
# [6] = system: T6, Rep nickase domain of maize striate mosaic virus
# T6 sequence (Rep 1-117, printed without the tag): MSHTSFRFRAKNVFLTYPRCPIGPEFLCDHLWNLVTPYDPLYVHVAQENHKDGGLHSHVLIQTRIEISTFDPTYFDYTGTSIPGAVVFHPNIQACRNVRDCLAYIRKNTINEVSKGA
# Procedure: as §1
# [7] = system: T7, Rep nickase domain of porcine circovirus 2
# T7 sequence (Rep 2-116, printed without the tag): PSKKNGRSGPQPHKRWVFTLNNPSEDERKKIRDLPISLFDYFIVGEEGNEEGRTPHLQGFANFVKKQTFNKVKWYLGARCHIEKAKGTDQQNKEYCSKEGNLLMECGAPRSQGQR
# Procedure: as §1
# [8] = system: T8, Rep nickase domain of tomato golden mosaic virus
# T8 sequence (Rep 1-124, printed without the tag): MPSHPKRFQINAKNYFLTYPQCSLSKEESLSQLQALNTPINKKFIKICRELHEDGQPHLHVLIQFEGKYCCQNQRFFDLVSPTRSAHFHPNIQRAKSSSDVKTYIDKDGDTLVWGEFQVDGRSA
# Procedure: as §1
# [9] = system: T9, Rep nickase domain of tomato yellow leaf curl virus
# T9 sequence (Rep 1-136, printed without the tag): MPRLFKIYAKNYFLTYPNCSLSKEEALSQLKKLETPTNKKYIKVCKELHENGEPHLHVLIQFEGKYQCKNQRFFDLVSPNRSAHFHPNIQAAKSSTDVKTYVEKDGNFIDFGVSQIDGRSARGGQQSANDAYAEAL
# Procedure: as §1
# [10] = system: T10, Rep nickase domain of wheat dwarf virus
# T10 sequence (Rep 1-137, printed without the tag): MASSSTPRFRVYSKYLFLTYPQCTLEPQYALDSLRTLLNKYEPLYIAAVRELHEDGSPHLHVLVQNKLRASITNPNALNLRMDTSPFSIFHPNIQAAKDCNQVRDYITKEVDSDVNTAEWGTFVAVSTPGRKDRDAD
# Procedure: as §1
Sequence,uncleaved DNA left (log2) [1],uncleaved DNA left (log2) [2],uncleaved DNA left (log2) [3],uncleaved DNA left (log2) [4],uncleaved DNA left (log2) [5],uncleaved DNA left (log2) [6],uncleaved DNA left (log2) [7],uncleaved DNA left (log2) [8],uncleaved DNA left (log2) [9],uncleaved DNA left (log2) [10]
CAGAACT,-0.146,-1.63,-0.426,-2.99,-0.518,-0.518,-3.45,-0.0646,-0.215,-0.138
TCGTTCT,-0.878,-0.15,-0.229,-1.98,-0.11,-0.494,-3.21,-0.182,0.0433,-0.181
CTGGCCG,-0.0132,0.00105,0.111,0.491,-0.0864,0.193,0.0396,0.0341,-0.0382,-0.0204
GTCTAGA,-0.0989,0.114,0.3,0.798,0.0392,1.59,0.144,0.108,0.0588,0.0244
GGGTGAT,-0.00729,0.102,0.676,1.83,-0.142,2.14,-0.335,-0.132,-0.0484,0.0143
TCCAGAG,-0.0738,-0.00752,-0.447,-0.522,0.0349,-1.06,0.138,-0.0573,0.0334,-0.111
AGGGTCG,-0.0163,0.0658,-0.537,-0.536,0.065,-0.74,0.249,0.0247,0.062,-0.026
TTAAACG,0.0199,-0.00595,-0.886,-0.551,-0.0321,-1.1,0.272,-0.03,-0.022,-0.0783
GGTGGCC,0.0371,0.0953,0.628,1.41,0.112,1.9,0.274,0.185,0.159,0.166
CCCATAG,0.141,0.226,-0.755,0.0694,-0.0175,-0.958,0.296,0.0262,0.128,0.0461
CTTATAC,0.00107,0.0163,-0.0256,-0.95,-0.0754,-0.764,-0.0704,0.0333,-0.025,0.0482
ATCCAGC,-0.00292,-0.0736,-0.451,-0.526,-0.00498,-0.991,0.176,-0.0197,-0.0341,-0.0434
GCAGCGT,0.0357,-0.0339,-0.586,-0.301,0.0401,-0.678,0.189,-0.0137,0.0419,-0.0118
TAAAATC,0.123,0.142,-2.95,-2.75,0.151,-1.42,0.182,-0.121,0.0688,-1.15
ACCTATA,-0.145,-0.0347,-0.385,-1.5,-0.0765,-0.856,-0.133,-0.00281,-0.169,-0.126
TAGTGCA,-0.344,-0.531,-0.519,-1.75,-0.281,-1.16,-2.91,-0.0929,-0.0608,-0.215
CGGGTTG,-0.0734,-0.163,-0.104,0.272,-0.0807,0.442,-0.0128,-0.0036,-0.224,-0.0133
TCCAGGA,-0.0138,-0.0745,0.137,0.434,0.0417,-0.0837,0.146,0.0972,-0.0112,-0.014
CTGCAAA,-0.0391,0.188,-0.0891,-0.133,0.0674,-1.04,0.0565,-0.0555,0.0433,0.0803
CTGCCGT,-0.107,-0.224,-0.513,-0.704,-0.188,-0.913,-0.257,-0.222,-0.291,-0.305

Sequence,uncleaved DNA left (log2) [1],uncleaved DNA left (log2) [2],uncleaved DNA left (log2) [3],uncleaved DNA left (log2) [4],uncleaved DNA left (log2) [5],uncleaved DNA left (log2) [6],uncleaved DNA left (log2) [7],uncleaved DNA left (log2) [8],uncleaved DNA left (log2) [9],uncleaved DNA left (log2) [10]
ATAAATT,0.0428,0.0241,0.111,-2.75,0.0636,-0.601,-0.415,-0.00849,-0.0128,-0.0278
TAGCTTA,-0.0694,-0.0927,-0.419,-2.26,-0.0398,-0.301,-2.12,-0.132,-0.0151,-0.164
CGTATAA,0.11,0.0189,-0.0132,-0.048,0.0375,-0.414,0.0406,0.0436,0.164,0.161
GTATGTT,-1.97,-0.127,-0.55,-0.359,-0.107,1.49,-2.34,-0.226,-0.0188,-0.18
CGCCCAC,0.0542,0.0681,-0.0215,-0.115,0.00556,-0.134,-0.0728,-0.0668,0.0505,0.0936
TCGGTAT,0.053,-0.0476,0.207,0.656,-0.093,1.35,0.0369,-0.00827,-0.0463,-0.00749
GATGCCA,0.0325,0.0174,0.0293,0.458,-0.145,0.637,0.0149,0.0147,-0.101,-0.0141
GTACTTG,-0.0459,-0.133,-0.00598,-0.0291,-0.0299,0.307,0.00315,-0.0286,-0.0378,-0.0658
GAGTATG,0.066,-0.111,-0.111,0.242,0.0334,0.247,-0.293,0.0764,0.161,0.0674
TTGCTGT,0.0905,-0.0697,-0.429,-0.458,0.025,-0.668,0.0437,-0.135,-0.0512,-0.091
CAATTAG,0.122,0.101,-0.769,-0.00344,0.165,-0.951,0.2,-0.00873,0.164,-0.0517
TCCTTAG,0.111,-0.023,-0.638,-0.782,0.207,-1.2,0.104,-0.0288,0.111,0.00203
TCTACTC,0.136,0.0208,0.0374,-1.87,0.0868,-0.364,0.0113,0.0431,-0.0104,-0.0732
ACCGCCA,-0.0467,0.0804,-0.154,-0.897,0.063,-0.667,-0.0356,-0.016,-0.0378,0.104
CCGGTCG,-0.0451,-0.0456,0.171,1.3,-0.0476,1.25,0.0471,0.0713,-0.0662,-0.241
ATTTCCC,-0.177,-0.127,-0.124,-0.418,-0.0638,-0.501,-0.285,-0.1,-0.124,-0.0996
AGAGCCT,0.238,0.189,0.886,1.52,0.178,2.13,0.165,0.116,0.0238,0.234
GCGGAAC,-0.0561,-0.0649,0.474,1.26,-0.207,1.79,-0.0219,-0.0778,-0.135,0.0166
GAGGAAT,0.063,0.155,0.797,1.82,0.0243,2.12,0.148,0.182,0.0272,0.23
TTACCGC,-0.0957,-0.0142,-0.128,0.534,-0.0151,0.363,-0.542,0.0314,0.0146,-0.0459

Sequence,uncleaved DNA left (log2) [1],uncleaved DNA left (log2) [2],uncleaved DNA left (log2) [3],uncleaved DNA left (log2) [4],uncleaved DNA left (log2) [5],uncleaved DNA left (log2) [6],uncleaved DNA left (log2) [7],uncleaved DNA left (log2) [8],uncleaved DNA left (log2) [9],uncleaved DNA left (log2) [10]
TGGATGT,0.0272,0.0805,0.672,1.54,-0.137,1.74,0.169,-0.0201,0.119,0.113
TAGCGTC,-0.0182,-0.132,-0.427,-0.751,-0.0172,-0.848,-0.0477,-0.177,-0.134,-0.0662
CGCGGCC,-0.0204,-0.03,-0.133,0.0408,-0.0352,-0.346,-0.026,-0.0162,-0.1,-0.123
TCCTATG,0.0331,0.0012,-0.465,-0.691,-0.174,-0.983,0.000262,-0.102,-0.0527,-0.158
CAAATTC,-0.0458,-0.0338,-0.416,-1.02,-0.00449,-1.07,0.0374,-0.0296,0.0385,-0.133
CTTAATG,-7.18e-05,0.0338,-0.741,-0.589,0.0687,-1.02,0.0951,0.016,0.0864,-0.072
CGCTACG,-0.0919,0.156,-0.727,-0.543,0.0777,-0.801,0.0411,-0.132,0.0822,0.0206
ACTTCAA,0.0706,0.0387,-0.197,-0.252,0.145,-0.749,-0.018,0.103,0.0137,0.039
CACCCTC,-0.0884,-0.19,-0.00126,-0.747,-0.182,-0.377,-0.896,-0.234,-0.0303,-0.0693
CGGCCCT,-0.0292,0.00769,0.0956,-0.278,-0.074,0.354,-0.148,-0.0809,0.0159,-0.0624
CGCACCC,-0.0114,0.123,0.14,0.196,-0.0661,0.127,-0.286,-0.174,0.0893,0.153
CACGCCT,-0.231,-0.229,-0.773,-2.5,-0.111,-0.841,-0.354,-0.22,-0.077,-0.24
ATCATCC,0.123,0.0527,0.0437,8.78e-05,0.0335,-0.45,0.0823,0.0982,0.0439,0.0906
CATGCCC,-0.0861,-9.92e-05,-0.266,-0.631,0.0323,-0.887,-0.0431,-0.11,-0.026,-0.0753
TGCCCGG,0.0357,0.0331,0.406,1.24,0.0289,1.64,0.0668,0.0741,-0.0921,0.0403
CGTACGT,0.0282,-0.128,0.137,0.239,-0.0184,0.212,-0.0156,-0.0781,0.0792,0.032
GACTCCC,-0.313,-0.154,0.128,0.124,-0.0627,0.643,-2.16,-0.0318,0.0526,-0.0187
GGTCCTT,-0.0592,0.0668,0.531,1.04,-0.104,1.96,0.0454,-0.00097,0.0989,0.141
GCGTACC,0.00446,-0.0987,-0.000648,0.077,-0.0662,0.211,-0.181,0.00533,-0.0483,0.0519
GCGCGAC,0.00776,-0.0715,0.0473,0.529,-0.0692,0.225,0.0671,-0.0477,-0.0684,-0.0101
